“And” between values parts separate entries of the source, which are not always exact repeats. Identical values can stand only once. Screen size: about 16,000 compounds; about 40 (0.2%) were called active. Another 1% or so got no clear call; they are omitted. Calls follow the shape of the dose curve; as a rule, active = well fitted activation curve with a large enough effect; inconclusive = small, poorly fitted or top-dose-only effect, or another doubt; inactive = no such curve, though single readings can be large or run the other way. Some of the results follow.
Molecular target: Rap guanine nucleotide exchange factor 4 (Homo sapiens) (UniProt Q8WZA2)
Sequence of UniProt Q8WZA2 (Q8WZA2 whole entry, looked up): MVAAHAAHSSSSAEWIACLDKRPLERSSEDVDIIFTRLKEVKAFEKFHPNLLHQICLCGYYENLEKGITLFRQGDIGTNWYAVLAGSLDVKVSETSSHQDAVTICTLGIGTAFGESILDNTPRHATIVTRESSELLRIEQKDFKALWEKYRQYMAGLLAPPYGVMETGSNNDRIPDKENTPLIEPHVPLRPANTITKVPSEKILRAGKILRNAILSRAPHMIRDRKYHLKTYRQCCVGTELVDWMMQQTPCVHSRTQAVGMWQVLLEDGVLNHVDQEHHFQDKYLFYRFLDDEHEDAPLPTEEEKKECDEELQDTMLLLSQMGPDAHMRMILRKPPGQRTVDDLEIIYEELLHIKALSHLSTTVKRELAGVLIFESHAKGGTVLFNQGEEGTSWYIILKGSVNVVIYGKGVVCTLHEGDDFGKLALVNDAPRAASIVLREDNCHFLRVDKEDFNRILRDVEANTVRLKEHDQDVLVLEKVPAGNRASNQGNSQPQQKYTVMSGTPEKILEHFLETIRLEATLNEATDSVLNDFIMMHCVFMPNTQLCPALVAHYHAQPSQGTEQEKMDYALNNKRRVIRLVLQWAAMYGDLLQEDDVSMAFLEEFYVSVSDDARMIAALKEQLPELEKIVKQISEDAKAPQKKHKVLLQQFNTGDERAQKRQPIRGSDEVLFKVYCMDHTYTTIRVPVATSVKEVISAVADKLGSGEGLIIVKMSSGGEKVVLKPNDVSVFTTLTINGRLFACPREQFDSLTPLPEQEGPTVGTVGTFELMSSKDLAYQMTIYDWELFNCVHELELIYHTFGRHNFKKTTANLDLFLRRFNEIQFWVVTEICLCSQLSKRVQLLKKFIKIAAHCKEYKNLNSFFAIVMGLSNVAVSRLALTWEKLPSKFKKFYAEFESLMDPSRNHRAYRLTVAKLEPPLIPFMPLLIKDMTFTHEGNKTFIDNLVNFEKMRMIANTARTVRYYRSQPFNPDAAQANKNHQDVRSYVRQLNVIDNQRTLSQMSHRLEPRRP
Assay: Validation qHTS for agonist of cAMP-regulated guanine nucleotide exchange factor 4 (EPAC2);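 also: exchange makes BODIPY-GDP fluorescence drop when released from Rap1B; series mostly up to about 150 µM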
Conditions: EPAC2 Rap1B BODIPY-GDP exchange, fluorescence; activation: hits give high values
Procedure, shortened: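 Signal normalized against 6.5 mM cAMP as agonist control. Mix of EPAC2 (100 nM), RAP1B-BODIPY-GDP (250 nM) and GDP (50 uM) was read kinetically at 480/540 nm, every 5 min over 30 min, after 5 min room-temperature incubation with compound.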
% is scaled to controls: 0 for no effect and ±100 for the full control effect.

Row | SMILES | activation
1 | COc1ccc2c(c[n+](C)c3c4cc5c(cc4ccc23)OCO5)c1OC | inactive: 16.1% and inactive: 10.6%
2 | CCC1(c2ccc(N)cc2)CCC(=O)NC1=O (configuration not stated) | inactive: 6.48% and inactive: -12.1% and inactive: -59.4%
3 | C[C@H](Cc1ccc2c(c1)OC(C(=O)O)(C(=O)O)O2)NC[C@H](O)c1cccc(Cl)c1 | inactive: -18.6%
4 | CC[C@@H](CO)NC(=O)[C@H]1C=C2c3cccc4c3c(cn4C)C[C@H]2N(C)C1 | inactive: 16.9%
5 | CCCCCCCCCC(=O)O[C@H]1CC[C@H]2[C@@H]3CCC4=CC(=O)CC[C@]4(C)[C@H]3CC[C@]12C | inactive: -9.81%
6 | C[N+]1(C)CCN(c2ccccc2)CC1 | inactive: -11.2% and inactive: -34.1%
7 | ClC1=C(Cl)[C@]2(Cl)[C@@H]3[C@@H]4C[C@@H]([C@H]5O[C@@H]45)[C@@H]3[C@@]1(Cl)C2(Cl)Cl | inactive: -6.27%
8 | [H+].[H+].[Hg+2].[O-]B([O-])[O-].[c-]1ccccc1 | inactive: -5.46%
9 | CCOC(=O)[C@]12Cc3cc(C)ccc3[C@H]1N(Cc1ccccc1)C(=O)c1ccccc12 | inactive: -14.8%
10 | O=C1CN=C(c2ccccc2)c2cc(Cl)ccc2N1 | inactive: 1.03%
11 | C[C@@H](N)[C@@H](O)c1ccccc1 | inactive: -2.87%
12 | NC(=O)COc1c(F)cc(SCCNS(=O)(=O)c2ccccc2)cc1F | inactive: -76.9%
13 | CCCN1CCC[C@H](c2cccc(O)c2)C1 | inactive: -15.4% and inactive: -15%
14 | COc1cc2nc(N(C)C)c(CNCCc3c[nH]c4ccccc34)cc2c(OC)c1OC | inactive: 0.969%
15 | CN(C)C(=O)Oc1cc(OC(=O)N(C)C)cc(C(O)CNC(C)(C)C)c1 (configuration not stated) | inactive: 5.41% and inactive: -14.8%
16 | c1ccc(N=Nc2ccccc2)cc1 | inactive: -2.68%
17 | CN(C(=O)Cc1ccc(Cl)c(Cl)c1)C(CN1CCCC1)c1cccc(OCC(=O)O)c1 (configuration not stated) | inactive: 1.78% and inactive: -36.3%
18 | NCCc1ccc(O)cc1 | inactive: 4.08% [middle of 4 runs]
19 | CN(CCc1ccc(Cl)c(Cl)c1)[C@@H]1CCCC[C@@H]1N1CCCC1 | inactive: 3.29%
20 | COc1ccc2c(c1)C13CCCC[C@@H]1C(C2)N(C)CC3 (some centres not stated) | inactive: 0.544%
21 | C[C@@H]1[C@H](O)[C@@H](C)C=CC=CCCC=CC=CC=CC=C[C@H](O[C@H]2O[C@@H](C)[C@H](O)[C@@H](N)[C@@H]2O)CC2O[C@](O)(C[C@@H](O)[C@H](O)CC[C@@H](O)C[C@@H](O)C[C@@H](O)CC(=O)O[C@H]1C)C[C@H](O)[C@H]2C(=O)O | inactive: -11.9%

Row | SMILES | activation
22 | CCc1cc(OC)c(C[C@H](C)N)cc1OC | inactive: -9.87%
23 | c1ccc(CCN2CCOCC2)cc1 | inactive: -17.4%
24 | N[C@@]1(C(=O)O)CC[C@@H](C(=O)O)C1 | inactive: -0.968%
25 | Cn1cc(C(=O)C(=O)N[C@H]2CN3CCC2CC3)c2ccccc21 | inactive: 9.38%
26 | C[C@@H]1OC(=O)[C@H]2C[C@H]3CCCC[C@@H]3[C@@H](/C=C/[C@H]3CCC[C@H](C)N3C)[C@@H]12 | inactive: -5.19%
27 | CNC(C)Cc1ccc2c(c1)OCO2 (configuration not stated) | inactive: -4.47%
28 | COc1ccc(/C=C/C(=O)N2CC3C[C@@H](C2)Cn2c3cccc2=O)cc1OC | inactive: -1.01%
29 | COc1ccc(CC2NC[C@H](O)[C@H]2OC(C)=O)cc1 (some centres not stated) | inactive: -7.96%
30 | Cc1nc2ccccc2c(=O)n1-c1ccccc1Cl | inactive: 1.61%
31 | CC[C@H](C)[C@H](NC(=O)[C@H](CCCN=C(N)N)NC(=O)[C@H](CCCN=C(N)N)NC(=O)[C@H](CC(C)C)NC(=O)[C@H](Cc1ccccc1)NC(=O)CNC(=O)CNC(=O)[C@@H](N)Cc1ccc(O)cc1)C(=O)O | inactive: -4.82%
32 | CCCCC/C=C\C[C@@H](/C=C/C=C\C/C=C\CCCC(=O)O)OO | inactive: -4.4%
33 | O=C1CS[C@@H](c2ccccc2Cl)c2cc(Cl)ccc2N1 | inactive: -16.9%
34 | CCN(CC)Cc1nccn1-c1ccc([N+](=O)[O-])cc1C(=O)c1ccccc1Cl | inactive: -11.5%
35 | [N-]=[N+]=CC(=O)OC[C@H](N)C(=O)O | inactive: -20.4%
36 | C[C@@H](N)Cn1ccc2cc(F)c(Cl)cc21 | inactive: -2.18%
37 | C#CCN1C(C)=C(C(=O)CCO)[C@@H](c2cccc(-n3oo3)c2)C(C(=O)OC)=C1C | inactive: 4.89%
38 | Cc1nc(N)sc1CCN | inactive: -16.9% and inactive: 2.66%
39 | O=C(O)CCCCCCNC1c2ccccc2CCc2ccccc21 | inactive: -1.72%
40 | COP(=S)(OC)Oc1ccc(S(N)(=O)=O)cc1 | inactive: 9.2%
41 | NCCCC[C@H](NC(=O)[C@H](Cc1ccccc1)NC(=O)[C@H](CCCN=C(N)N)NC(=O)[C@@H](N)Cc1ccc(O)cc1)C(N)=O | inactive: -9.46%
42 | NCCCP(=O)(O)CC1CCCCC1 | inactive: -10.2% and inactive: 10%

Row | SMILES | activation
43 | COc1cc(CCN)cc(OC)c1OC | inactive: -5.03%
44 | COc1cccc2c1C13CC[N+]4(CC5CC5)CO[C@]1(CCC(=O)C3)C4C2 | inactive: 3.83%
45 | CCCN1CCO[C@@H]2c3cc(O)ccc3OC[C@@H]21 | inactive: -4.23%
46 | C[C@@H]1O[C@@H](O[C@H]2C[C@@H](O)[C@]3(CO)[C@H]4[C@H](O)C[C@]5(C)[C@@H](C6=CC(=O)OC6)CC[C@]5(O)[C@@H]4CC[C@]3(O)C2)[C@H](O)[C@H](O)[C@H]1O | inactive: -13% and inactive: -19.3% and inactive: -25.1%
47 | Clc1cc(I)cc(Cl)c1NC1=NCCN1 | inactive: -13.1%
48 | C[C@@H](N)Cc1cnc[nH]1 | inactive: -17.3% and inactive: 13.1% and inactive: -28%
49 | CC1NCCOC1c1ccccc1 (configuration not stated) | inactive: -14%
50 | COc1ccc2c3c([nH]c2c1)C(C)=NCC3 | inactive: 23% and inactive: -2.23% and inactive: 8.55%
51 | CCC(C)(C)c1ccc(O)cc1 | inactive: -21.7%
52 | CCCN1CCC[C@@H]2Cc3[nH]ncc3C[C@H]21 | inactive: -9.67% [middle of 4 runs]
53 | C=C(C)C1CNC(C(=O)O)C1CC(=O)O (configuration not stated) | inactive: 4.42%
54 | O=C(N/N=C/c1ccc([N+](=O)[O-])o1)c1cc([N+](=O)[O-])cc([N+](=O)[O-])c1O | inactive: -21.5%
55 | C[C@]12CC[C@H]3[C@@H](CC[C@@]45O[C@@H]4C(O)=C(C#N)C[C@]35C)[C@@H]1CC[C@@H]2O | inactive: -8.17%
56 | C[C@@]12CC(c3ccoc3)OC(=O)C1CC[C@@]1(C)C2C2C=C[C@@]1(O)C(=O)O2 (some centres not stated) | inactive: -20.5%
57 | COC1=C[C@H]2[C@H]3Cc4ccc(OC)c(O)c4[C@@]2(CCN3C)CC1=O | inactive: -1.84%
58 | O=C(Oc1ccccc1)N1CCC2(CCCN(C(c3ccccc3)c3ccccc3)C2)CC1 | inactive: -15.7%
59 | O=C1CSC(c2ccccc2Cl)c2cc(Cl)ccc2N1 (configuration not stated) | inactive: 13.3%
60 | CC(C)CCC(=O)O[C@H]1CC[C@H]2[C@@H]3CCC4=CC(=O)CC[C@]4(C)[C@H]3CC[C@]12C | inactive: -8.21%
61 | NNC(=O)c1ccc(O)cc1 | inactive: 5.24%
62 | COC(=O)[C@@H](N)CCCN=C(N)N[N+](=O)[O-] | inactive: -4.09% and inactive: -12.6%
63 | C[C@]1(O)CC[C@H]2[C@@H]3CCC4=CC(=O)CC[C@]4(C)[C@@]3(F)[C@@H](O)C[C@@]21C | inactive: 8.59%

Row | SMILES | activation
64 | CN1CCN=C(c2ccccc2)c2cc(Cl)ccc21 | inactive: -5.03%
65 | O[C@@H]1CCCC[C@@H]1N1CCC(c2ccccc2)CC1 | inactive: 5.35%
66 | CCCC[C@H]1C(=O)O[C@H](C)[C@H](NC(=O)c2cccc(NC=O)c2OC)C(=O)O[C@@H](C)[C@@H]1OC(=O)CC(C)C | inactive: -41%
67 | C=C(C)C1Cc2c(ccc3c(=O)c4c(oc23)COc2cc(OC)c(OC)cc2-4)O1 (configuration not stated) | inactive: 1.58% and inactive: -10.2%
68 | CCCOc1ccc2[nH]cc(C3=CCNCC3)c2n1 | inactive: -8.58%
69 | FC(F)OC(F)(F)C(F)Cl (configuration not stated) | inactive: 7.59%
70 | C[C@H](CN1CCOCC1)C(C(=O)N1CCCC1)(c1ccccc1)c1ccccc1 | inactive: -20%
71 | CNCCc1c[nH]c2ccc(O)cc12 | inactive: 4.52% and inactive: -16.7%
72 | C[C@@]12CCC3C(CC[C@@H]4CC(O)CC[C@@]34C)C1CCC2O (some centres not stated) | inactive: -15.8%
73 | NCCCP(=O)(O)O | inactive: -28.2%
74 | CCC1(CC)C(=O)C=CNC1=O | inactive: -13.2%
75 | NC1=NC(=O)N2CC12 (configuration not stated) | inactive: 14.8%
76 | CC(C)(c1ccc(OCC2CO2)cc1)c1ccc(OCC2CO2)cc1 (configuration not stated) | inactive: -9.17% and inactive: -12.8%
77 | c1ccc(N2CCN(c3ccccc3)CC2)cc1 | inactive: -1.12%
78 | O=C(NC(=O)c1c(F)cccc1F)Nc1cc(Cl)c(OC(F)(F)C(F)C(F)(F)F)cc1Cl (configuration not stated) | inactive: 9.23% and inactive: -12.8%
79 | NC[C@@H](CC(=O)O)c1ccc(Cl)cc1 | inactive: -17.7%
80 | CCOC(=O)c1cc2c(cn1)[nH]c1ccccc12 | inactive: -1.95% and inactive: 2.43%
81 | CNCC(=O)c1ccc(O)c(O)c1 | inactive: 3.95%
82 | C[C@]12CC[C@H]3[C@@H](CCC4=C(Cl)C(=O)CC[C@@]43C)[C@@H]1CC[C@@H]2O | inactive: -3.91%
